We go through 29 compounds from the supplement of paper PMC10037445.

The subject of experiment [1] is RAW-Dual. Kind of experiment: IRF Lucia reporter activity, fold change vs agonist alone; cytotoxicity flag (confluency mask): not cytotoxic; higher = enhanced IRF activity. In a few lines:
(§1)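 Library stock was pin-tooled at 50 nL into 384-well plates of RAW-Dual macrophages (50,000 cells/well, DMEM), followed 1 h later by a PRR agonist, and the cells were kept at 37 °C, 5% CO2. Supernatant collected after 20 hours was read for IRF by QuantiLuc luminescence and for NF-κB by QuantiBlue absorbance at 620 nm. Reporter activity is fold change over agonist-alone wells, and a well counted as cytotoxic when its IncuCyte confluency was below 70% of agonist controls in both mask sets.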

In experiment [2] the test system is RAW-Dual. The experiment is described as follows: IRF Lucia reporter activity, fold change vs agonist alone; higher = enhanced IRF activity. The settings on record: library stock concentration (final ~1000-fold dilution): 10 mM, agonist: MPLA (TLR4) […]. In outline: as §1
The subject of experiment [3] is RAW-Dual. The experiment is described as follows: IRF Lucia reporter activity, fold change vs agonist alone; cytotoxicity flag (confluency mask): cytotoxic (confluency <70% of control); higher = enhanced IRF activity. In outline: as §1
[4] abbreviates: agonist: 3'3'-cGAMP (STING) 10 ug/mL.
Where [5] appears, read: cytotoxicity flag (confluency mask): not cytotoxic.

Several values for one entry are separate records, joined by “and”; a condition that tells them apart may be missing. Equal values may be shown once. Over roughly 2,900 compounds, “IRF Lucia reporter activity, fold change vs agonist alone” has its median near 0.9; the highest 2% begin near 2.8. Some of the results follow.

Take `O=C(c1ccccc1)C(O)O` (library stock concentration (final ~1000-fold dilution): 10 mM): the “IRF Lucia reporter activity” value in experiment [1] (setting [4]) was 1.01; in experiment [1] (agonist: LPS (TLR4) 0.1 ug/mL), 1.43.
As to `C=CC(=O)Nc1ccc2ncnc(Nc3ccc(OCc4cccc(F)c4)c(Cl)c3)c2c1.Cc1ccc(S(=O)(=O)O)cc1`, in experiment [2] (setting [5]), the “IRF Lucia reporter activity” value was found to be 0.821.
Consider `C=CC(=O)Nc1ccc2ncnc(Nc3ccc(OCc4cccc(F)c4)c(Cl)c3)c2c1.Cc1ccc(S(=O)(=O)O)cc1` (library stock concentration (final ~1000-fold dilution): 10 mM), for which the “IRF Lucia reporter activity” value was 0.56 in experiment [1] (setting [4]) and 0.638 in experiment [1] (agonist: LPS (TLR4) 0.1 ug/mL).
For `COc1cc(C(C)=O)ccc1OCCCN1CCC(c2noc3cc(F)ccc23)CC1` (library stock concentration (final ~1000-fold dilution): 10 mM) the same measures were 1.06 and 0.959.
For the compound `COc1cc(C(C)=O)ccc1OCCCN1CCC(c2noc3cc(F)ccc23)CC1`, in experiment [2] (setting [5]), the “IRF Lucia reporter activity” value was 0.754.
Still for that read-out and setting: the value for `Cc1c[nH]c(-c2cnc(NCCNc3ccc(C#N)cn3)nc2-c2ccc(Cl)cc2Cl)n1.Cl` was 0.336.
`Cc1c[nH]c(-c2cnc(NCCNc3ccc(C#N)cn3)nc2-c2ccc(Cl)cc2Cl)n1.Cl` (library stock concentration (final ~1000-fold dilution): 10 mM): the “IRF Lucia reporter activity” value was 0.424 in experiment [1] (setting [4]) and 0.208 in experiment [1] (agonist: LPS (TLR4) 0.1 ug/mL).
As for `O=C1OC(=O)C2C3CCC(O3)C12` (stereo unspecified) (library stock concentration (final ~1000-fold dilution): 10 mM), the “IRF Lucia reporter activity” value amounted to 1.33 in experiment [1] (setting [4]) and 1.72 in experiment [1] (agonist: LPS (TLR4) 0.1 ug/mL).
For `O=C1OC(=O)C2C3CCC(O3)C12` (stereo unspecified), the “IRF Lucia reporter activity” value in experiment [2] (setting [5]) turned out to be 1.18.
Regarding `CCOC(=O)n1ccn(C)c1=S` (library stock concentration (final ~1000-fold dilution): 10 mM), the “IRF Lucia reporter activity” value in experiment [1] (setting [4]) was 1.09; in experiment [1] (agonist: LPS (TLR4) 0.1 ug/mL) it was 1.23.
As for `CCOC(=O)n1ccn(C)c1=S`, in experiment [2] (setting [5]), the “IRF Lucia reporter activity” value was 1.07.
In the case of `CC(C)=CCCC(C)(OC1OC(CO)C(O)C(O)C1O)C1CCC2(C)C1C(O)CC1C3(C)CCC(OC4OC(CO)C(O)C(O)C4OC4OC(CO)C(O)C(O)C4O)C(C)(C)C3CCC12C` (stereo unspecified) (library stock concentration (final ~1000-fold dilution): 10 mM), the figures for the “IRF Lucia reporter activity” value in experiment [1] (setting [4]) and in experiment [1] (agonist: LPS (TLR4) 0.1 ug/mL) were 1.09 and 1.39, respectively.
For `CC(C)=CCCC(C)(OC1OC(CO)C(O)C(O)C1O)C1CCC2(C)C1C(O)CC1C3(C)CCC(OC4OC(CO)C(O)C(O)C4OC4OC(CO)C(O)C(O)C4O)C(C)(C)C3CCC12C` (stereo unspecified), the “IRF Lucia reporter activity” value in experiment [2] (setting [5]) was 1.14.
For `COc1cc(N2CCC(N)CC2)ccc1Nc1ncc(Cl)c(-c2c[nH]c3ccccc23)n1`, in experiment [2] (cytotoxicity flag (confluency mask): cytotoxic (confluency <70% of control)), the “IRF Lucia reporter activity” value was 0.0216.
As for `COc1cc(N2CCC(N)CC2)ccc1Nc1ncc(Cl)c(-c2c[nH]c3ccccc23)n1` (library stock concentration (final ~1000-fold dilution): 10 mM), the “IRF Lucia reporter activity” value in experiment [3] (setting [4]) was determined as 0.0212; in experiment [3] (agonist: LPS (TLR4) 0.1 ug/mL), 0.0182.
Consider `Cl.O=C(c1ccc(OCCN2CCCCC2)cc1)c1c(-c2ccc(O)cc2)sc2cc(O)ccc12`, for which the “IRF Lucia reporter activity” value in experiment [2] (setting [5]) was found to be 0.813.
On to `Cl.O=C(c1ccc(OCCN2CCCCC2)cc1)c1c(-c2ccc(O)cc2)sc2cc(O)ccc12` (library stock concentration (final ~1000-fold dilution): 10 mM), for which the “IRF Lucia reporter activity” value came to 0.779 in experiment [1] (setting [4]) and 0.326 in experiment [1] (agonist: LPS (TLR4) 0.1 ug/mL).
The matching figures for `CC(C)N1CCN(Cc2cnc(-c3cc(-c4cccc5[nH]ccc45)cc4[nH]ncc34)o2)CC1` (library stock concentration (final ~1000-fold dilution): 10 mM): 0.609 and 1.42.
For `CC(C)(OC1OC(CO)C(O)C(O)C1O)C1Cc2cc3ccc(=O)oc3cc2O1` (stereo unspecified) (library stock concentration (final ~1000-fold dilution): 10 mM) the same measures were 1.05 and 1.16.
The matching figures for `CN1C(=O)C(NC(=O)c2cc(Cc3ccccc3)on2)COc2ccccc21` (stereo unspecified) (library stock concentration (final ~1000-fold dilution): 10 mM): 0.896 and 1.38.
With `Cc1ccccc1OCC(O)CO` (stereo unspecified), in experiment [2] (setting [5]), the “IRF Lucia reporter activity” value amounted to 1.13.
For the compound `Cc1ccccc1OCC(O)CO` (stereo unspecified) (library stock concentration (final ~1000-fold dilution): 10 mM), the “IRF Lucia reporter activity” value was determined as 1.01 in experiment [1] (setting [4]) and 1.42 in experiment [1] (agonist: LPS (TLR4) 0.1 ug/mL).
`O=C1CN(/N=C/c2ccc([N+](=O)[O-])o2)C(=O)N1`: the “IRF Lucia reporter activity” value in experiment [2] (setting [5]) is 1.1.
With `O=C1CN(/N=C/c2ccc([N+](=O)[O-])o2)C(=O)N1` (library stock concentration (final ~1000-fold dilution): 10 mM), the entries for the “IRF Lucia reporter activity” value in experiment [1] (setting [4]) and in experiment [1] (agonist: LPS (TLR4) 0.1 ug/mL) were 1.06 and 1.13, respectively.
With `O=C(O)c1cc(=O)cc(C(=O)O)o1`, the “IRF Lucia reporter activity” value in experiment [2] (setting [5]) was found to be 1.04.
Take `O=C(O)c1cc(=O)cc(C(=O)O)o1` (library stock concentration (final ~1000-fold dilution): 10 mM): the “IRF Lucia reporter activity” value in experiment [1] (setting [4]) is 1.03 and 1.14; in experiment [1] (agonist: LPS (TLR4) 0.1 ug/mL) it was 0.827 and 1.01.
Turning to `COc1cc(CCC(O)CC(O)CCc2ccc(O)c(OC)c2)ccc1O` (stereo unspecified) (library stock concentration (final ~1000-fold dilution): 10 mM), the “IRF Lucia reporter activity” value in experiment [1] (setting [4]) stood at 0.889; in experiment [1] (agonist: LPS (TLR4) 0.1 ug/mL), 1.15.
For `CN(C)CCOC(C)(c1ccccc1)c1ccccn1.O=C(O)CCC(=O)O` (stereo unspecified) (library stock concentration (final ~1000-fold dilution): 10 mM) the same measures were 1.04 and 1.25.
As for `CN(C)CCOC(C)(c1ccccc1)c1ccccn1.O=C(O)CCC(=O)O` (stereo unspecified), the “IRF Lucia reporter activity” value in experiment [2] (setting [5]) is 1.17.
